The results in this text go back to article PMC6758638.

By UniProt entry, the sequences of proteins in these tests, tags left out.
UniProt P18272: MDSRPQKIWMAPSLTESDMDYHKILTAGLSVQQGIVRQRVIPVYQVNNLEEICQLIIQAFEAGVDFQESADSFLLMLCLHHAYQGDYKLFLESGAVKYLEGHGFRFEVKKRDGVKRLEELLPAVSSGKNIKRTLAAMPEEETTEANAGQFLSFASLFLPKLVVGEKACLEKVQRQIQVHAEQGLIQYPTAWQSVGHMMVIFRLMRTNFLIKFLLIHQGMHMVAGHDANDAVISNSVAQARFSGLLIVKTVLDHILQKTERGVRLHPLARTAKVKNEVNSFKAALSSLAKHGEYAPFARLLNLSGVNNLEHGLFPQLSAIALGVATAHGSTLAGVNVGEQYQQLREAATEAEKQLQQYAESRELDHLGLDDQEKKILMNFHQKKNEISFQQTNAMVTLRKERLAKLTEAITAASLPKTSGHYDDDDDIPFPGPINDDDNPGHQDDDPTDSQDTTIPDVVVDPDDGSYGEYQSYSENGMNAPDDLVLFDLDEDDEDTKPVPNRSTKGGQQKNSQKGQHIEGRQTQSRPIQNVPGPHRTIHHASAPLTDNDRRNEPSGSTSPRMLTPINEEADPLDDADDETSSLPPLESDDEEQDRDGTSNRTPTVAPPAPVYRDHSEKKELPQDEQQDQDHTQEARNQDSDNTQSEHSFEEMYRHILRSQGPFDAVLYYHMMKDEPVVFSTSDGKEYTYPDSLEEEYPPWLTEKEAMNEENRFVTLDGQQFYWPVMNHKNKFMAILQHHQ
UniProt Q05323: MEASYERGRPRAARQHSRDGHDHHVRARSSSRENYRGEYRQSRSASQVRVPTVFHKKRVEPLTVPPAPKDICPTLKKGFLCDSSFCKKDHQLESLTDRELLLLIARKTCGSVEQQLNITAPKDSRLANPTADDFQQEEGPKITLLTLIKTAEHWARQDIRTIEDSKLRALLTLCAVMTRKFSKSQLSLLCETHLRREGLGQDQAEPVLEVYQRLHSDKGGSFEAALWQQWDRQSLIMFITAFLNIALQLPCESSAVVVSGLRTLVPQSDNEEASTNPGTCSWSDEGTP
UniProt Q05127: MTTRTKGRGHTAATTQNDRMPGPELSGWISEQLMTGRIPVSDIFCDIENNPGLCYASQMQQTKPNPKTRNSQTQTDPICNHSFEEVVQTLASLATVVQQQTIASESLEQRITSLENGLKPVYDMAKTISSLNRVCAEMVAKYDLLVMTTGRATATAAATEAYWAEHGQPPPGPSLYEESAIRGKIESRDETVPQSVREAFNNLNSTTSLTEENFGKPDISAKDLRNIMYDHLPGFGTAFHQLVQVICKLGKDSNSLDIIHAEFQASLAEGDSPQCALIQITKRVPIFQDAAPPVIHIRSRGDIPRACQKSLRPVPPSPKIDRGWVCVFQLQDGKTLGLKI
UniProt Q8JPY1: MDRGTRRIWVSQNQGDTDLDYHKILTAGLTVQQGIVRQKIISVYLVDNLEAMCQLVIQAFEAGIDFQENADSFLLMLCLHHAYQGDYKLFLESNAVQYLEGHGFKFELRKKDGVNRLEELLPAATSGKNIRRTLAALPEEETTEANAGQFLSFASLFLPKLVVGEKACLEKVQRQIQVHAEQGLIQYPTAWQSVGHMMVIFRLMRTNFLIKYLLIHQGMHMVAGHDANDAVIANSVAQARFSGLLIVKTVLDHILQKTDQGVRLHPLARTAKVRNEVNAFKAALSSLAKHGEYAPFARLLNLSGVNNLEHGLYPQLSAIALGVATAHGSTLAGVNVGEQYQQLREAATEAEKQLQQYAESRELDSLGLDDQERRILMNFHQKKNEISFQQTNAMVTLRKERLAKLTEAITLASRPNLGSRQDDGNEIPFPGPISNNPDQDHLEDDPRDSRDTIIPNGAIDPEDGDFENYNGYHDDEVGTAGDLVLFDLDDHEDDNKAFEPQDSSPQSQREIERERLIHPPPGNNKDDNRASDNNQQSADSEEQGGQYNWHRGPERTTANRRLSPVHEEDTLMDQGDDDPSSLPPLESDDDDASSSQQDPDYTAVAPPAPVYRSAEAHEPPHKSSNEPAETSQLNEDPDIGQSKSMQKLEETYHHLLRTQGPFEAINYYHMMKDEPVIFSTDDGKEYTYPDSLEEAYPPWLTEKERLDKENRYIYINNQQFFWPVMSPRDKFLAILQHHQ
UniProt Q15172: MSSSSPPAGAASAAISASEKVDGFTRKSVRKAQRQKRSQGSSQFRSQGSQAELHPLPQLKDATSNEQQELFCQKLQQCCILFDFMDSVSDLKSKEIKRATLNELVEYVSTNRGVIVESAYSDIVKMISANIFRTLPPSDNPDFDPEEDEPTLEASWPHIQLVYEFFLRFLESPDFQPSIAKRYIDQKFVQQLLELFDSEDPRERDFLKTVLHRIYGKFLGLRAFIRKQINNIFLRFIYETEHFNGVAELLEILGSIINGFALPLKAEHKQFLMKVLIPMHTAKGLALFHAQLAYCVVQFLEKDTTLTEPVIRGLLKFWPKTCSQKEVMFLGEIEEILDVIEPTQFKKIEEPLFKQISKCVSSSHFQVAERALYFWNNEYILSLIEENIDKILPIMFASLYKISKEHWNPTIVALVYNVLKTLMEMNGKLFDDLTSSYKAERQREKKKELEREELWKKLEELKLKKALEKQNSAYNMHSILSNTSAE

What all share (test): co-IP
The target of assay [1] is C-terminal HA-tagged Zaire ebolavirus (strain Mayinga) nucleoprotein (Zaire ebolavirus (strain Mayinga)) (UniProt P18272).
The target of assay [2] is T1, N-terminal HA-tagged wild-type SMYD3 (human) (UniProt Q9H7B4).
T1 sequence: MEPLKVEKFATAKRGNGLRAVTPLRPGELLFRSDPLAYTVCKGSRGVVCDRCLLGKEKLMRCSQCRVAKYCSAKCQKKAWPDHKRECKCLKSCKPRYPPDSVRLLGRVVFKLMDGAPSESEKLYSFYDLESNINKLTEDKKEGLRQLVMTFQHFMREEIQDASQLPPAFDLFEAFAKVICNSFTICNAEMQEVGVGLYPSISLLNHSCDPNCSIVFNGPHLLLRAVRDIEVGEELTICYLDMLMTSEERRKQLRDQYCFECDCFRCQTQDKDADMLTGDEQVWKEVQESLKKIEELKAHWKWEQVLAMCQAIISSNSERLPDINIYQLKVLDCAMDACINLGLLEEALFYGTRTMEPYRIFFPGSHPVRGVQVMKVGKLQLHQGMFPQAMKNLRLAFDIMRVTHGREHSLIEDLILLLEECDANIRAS

For assay [3], the target named is C-terminal HA-tagged Zaire ebolavirus (strain Mayinga) nucleoprotein (Zaire ebolavirus (strain Mayinga)) (UniProt P18272). This is another data set of the same source.
The target of assay [4] is C-terminal HA-tagged Zaire ebolavirus VP30 (Zaire ebolavirus (strain Mayinga)) (UniProt Q05323).
Assay [5] deals with HA-tagged Zaire ebolavirus VP35 (Zaire ebolavirus (strain Mayinga)) (UniProt Q05127).
Assay [6] has as its target wild-type Reston virus NP (Reston ebolavirus (strain Pennsylvania)) (UniProt Q8JPY1).

Where two headings read alike, the source gives them in different places. These are yes or no findings as the source states them, for the method shown. Binding seen in cells or lysates may run through a third protein. Some results given as binding are weak or reduced against the parent protein; the word gives no strength. For some of these results: Where a sequence is shown, tags or fusion partners need not be part of it.

On to “FLAG-tagged B56α (from UniProt Q15172 1-486)”, for which the binding entry in assay [1] is recorded as “binds”.
With “C-terminal FLAG-tagged Zaire ebolavirus VP30 (from UniProt Q05323 1-288)”, the binding entry in assay [1] is “binds”.
On to “C-terminal FLAG-tagged Zaire ebolavirus (strain Mayinga) nucleoprotein (from UniProt P18272 1-739)”, for which, in assay [2], the binding entry is on record as “binds”.

B1: SET and MYND domain-containing protein 3, endogenous (protein, UniProt Q9H7B4 1-428)
chain: T1 sequence
With B1, the binding entry in assay [3] is listed as “binds”; in assay [4] it was “no binding”; in assay [5], “no binding”; in assay [6], “binds”.
